The results in this text go back to publication PMC10726135.

Some of the results follow. At the low end of the ranking the order means little. The protein was read in a cell extract, so binding may be indirect.

This experiment has as its target T1, HNF4alpha8 (COS-7 nuclear extract) (UniProt P41235-5).
T1 sequence: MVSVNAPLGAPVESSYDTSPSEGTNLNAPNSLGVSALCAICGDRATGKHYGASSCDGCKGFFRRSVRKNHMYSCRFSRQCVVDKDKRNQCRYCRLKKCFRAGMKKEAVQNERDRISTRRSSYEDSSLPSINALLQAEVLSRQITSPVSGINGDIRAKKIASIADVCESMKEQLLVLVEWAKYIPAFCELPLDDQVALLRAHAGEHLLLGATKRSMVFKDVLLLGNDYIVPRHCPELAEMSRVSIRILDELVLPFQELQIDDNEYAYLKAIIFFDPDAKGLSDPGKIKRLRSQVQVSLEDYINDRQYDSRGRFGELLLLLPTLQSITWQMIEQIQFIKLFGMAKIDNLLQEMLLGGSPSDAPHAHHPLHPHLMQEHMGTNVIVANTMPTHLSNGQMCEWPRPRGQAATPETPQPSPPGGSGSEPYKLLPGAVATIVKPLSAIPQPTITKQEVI
Put plainly: protein-binding microarray. Conditions: COS-7 nuclear extract on double-stranded Agilent 4x180k PBM; binding buffer, salt, pH and temperature not given; high values mean tight binding; double strand, one strand shown; sequences stand for … in …GCCTAGGGAGATTAGAGTATCGGTCGA
On to CTGGCAGAGGAAAAAGTCCCTGGTCCCATA, for which the binding signal (log2 normalized intensity) is -0.772.

Regarding TCCAGAACCAAGATTTACATCCTATCCTGG, the binding signal (log2 normalized intensity) is -1.28.

As to ACGTTGTACCCCACAGGTATTCTTTCATCC, the binding signal (log2 normalized intensity) amounted to 1.46.

On to AACAGCACTTGTGCAGTTTTTCTGCCGAAG, for which the binding signal (log2 normalized intensity) was -1.37.

In the case of TGTGTACCTCATCTTCTTTCCTGGTGCCTC, the binding signal (log2 normalized intensity) was determined as 1.31.

On to TCATTCCCCTAGTATATTGGCTTGGCTGTG, for which the binding signal (log2 normalized intensity) worked out at 2.39.

In the case of AGCCTGCAGCACCTTGATGCTGGACTTCAG, the binding signal (log2 normalized intensity) turned out to be 3.36.

As for CGCCTGACCTGGCCCCTGAGGGTGCTGAGC, the binding signal (log2 normalized intensity) was -1.22.

GTTCTCTCCGGGTAAAGGTGAAGGCTGACC: the binding signal (log2 normalized intensity) was determined as 2.

On to ACAGTCTTGGGCACAAAGTACAAAAGAGGC, for which the binding signal (log2 normalized intensity) came out at 2.22.

Consider TTCAAGGGCCACTCAGTTGAAGTTCCAGAA, for which the binding signal (log2 normalized intensity) was -1.28.

For the sequence AGTTGATTGCACCCTTCCCTAAGATTTATC, the binding signal (log2 normalized intensity) was found to be 1.67.

As for AGGCCATCCCAGTTACTCAGCGAATACCAA, the binding signal (log2 normalized intensity) was -1.3.

For GATTACGTGTTCCCAGGATGAGGCCGTTCT, the binding signal (log2 normalized intensity) amounted to 1.32.

As for AGGGGGATTACCTAAACAGCAACTGTAGTG, the binding signal (log2 normalized intensity) is -1.28.

Turning to AAAGACCTTGCTGATAAAACAGCATGCGGT, the binding signal (log2 normalized intensity) is -1.15.

With GAAAACATCATTCCGTGACTGAGCTCGCGC, the binding signal (log2 normalized intensity) is -1.24.

CCACCCCTCCTCCTGGGGGCTTTTGTTTAG: the binding signal (log2 normalized intensity) was determined as 1.23.

ATGTCAGGAGCCCCACTGTAGTAAGGGAGT: the binding signal (log2 normalized intensity) is -0.892.

TGCAACAGTGACCCAAATATGGTCCCTGAC: the binding signal (log2 normalized intensity) was -0.137.

With TGGGGGCCACGCACACCTGGATCTTCCAGG, the binding signal (log2 normalized intensity) was -1.3.

Regarding TCACATACTGTGGACATAAAAAGATAATGC, the binding signal (log2 normalized intensity) is -0.763.

Regarding AAGTTCAGTCGAATTTGGTTACTCGCCTTA, the binding signal (log2 normalized intensity) is -1.09.

On to CCTCATGCCTTATCTACATAGTCCCTGCAC, for which the binding signal (log2 normalized intensity) is -0.173.

As for AAAGCCTAAAATATTCACTATCTGATCCTT, the binding signal (log2 normalized intensity) amounted to 0.685.

As to ATAAGCTCTGCGCCCTTGGAATATCCTGCC, the binding signal (log2 normalized intensity) is -1.3.

As for CCGCTTGGCCCTCTTCCAAGTGTTCTTTAC, the binding signal (log2 normalized intensity) was 1.72.

With TAAACCCCTGGAGCACAGAAGGAGGGCGGG, the binding signal (log2 normalized intensity) is -1.27.

Consider TAGAAGTACTAGATTTGGAACTCAGAGTTT, for which the binding signal (log2 normalized intensity) amounted to 0.701.

Take TGCATATCAGCATGGCTGCAGAGAACAGCA: the binding signal (log2 normalized intensity) is -1.32.

As for TGGGGAGGTTTGGCTGAGAGGGATAAAAGG, the binding signal (log2 normalized intensity) is -1.21.

On to CAGTCAATTACATGGCAGATGTCTGTGTTC, for which the binding signal (log2 normalized intensity) turned out to be 1.84.

Take TCCCCGGGCGGGATGGGGTCACGAGACGGT: the binding signal (log2 normalized intensity) was 2.27.

For the sequence CTTTCATACGTTTAACAGTTCCTCCTGGAA, the binding signal (log2 normalized intensity) was 0.801.

TGTCTTTGGGTGGAGGGGAGGTTATCTTGG: the binding signal (log2 normalized intensity) came to 1.02.

In the case of AGTGAAGACTGAAAAGAGATAACTAGATGA, the binding signal (log2 normalized intensity) is -1.2.

For the sequence CATTCCAGAAAGACAGCTGCATTTGTCCGG, the binding signal (log2 normalized intensity) is 0.215.

As for GGTCCAGCCTACCCACCCACACCTCCCCTT, the binding signal (log2 normalized intensity) turned out to be 4.48.

As for CCTGTTTGACCTTCGAACCCTTGCCATTTA, the binding signal (log2 normalized intensity) was found to be 7.81.

For the sequence GACCTAGATGGAATGTTGTGTCTTCCAGTT, the binding signal (log2 normalized intensity) came out at 1.45.

On to TGAATGCCTAGGTGACAAGGAAAACTACAC, for which the binding signal (log2 normalized intensity) is -1.39.

In the case of GTGAGTGGACTTTGGTCCTGGTCAGACTTG, the binding signal (log2 normalized intensity) came to 6.78.

For the sequence TTCTGACCTTTAAGCACCCAGAGCCCCACC, the binding signal (log2 normalized intensity) worked out at 5.07.

Take AAGAATGAAAGCCAAGGCAGATATGAAAGA: the binding signal (log2 normalized intensity) is -1.29.

On to TCTCTCTCCTCTCCAGCCCATCCTAAGCCC, for which the binding signal (log2 normalized intensity) is 2.28.

Take TTTTTTCAGGTGTTGCTCTCTTGCCATTCG: the binding signal (log2 normalized intensity) is 0.21.

With AGCCCTAACCAGGGGTGGGGACCTTTGGGC, the binding signal (log2 normalized intensity) came out at 3.85.

Regarding CCCACAGTGCCCTCTATTGGCTGTTTAGTA, the binding signal (log2 normalized intensity) is 1.56.

On to TTTAATTCTGAGTTCCAATAGCAAAACCTG, for which the binding signal (log2 normalized intensity) was -1.32.

On to CTGGACTTTGGCTGCAAAATTTGAACAAAA, for which the binding signal (log2 normalized intensity) came out at 2.14.

For the sequence TCATCACTTAGGATATTCCAAGGGGTTAGA, the binding signal (log2 normalized intensity) worked out at 0.889.

Take CATCTTTGAAGAGCACAGGGTCAGCAGATC: the binding signal (log2 normalized intensity) stood at 1.59.

As for CCAAGCCCCAAAAACTTGGACTCTATAGCC, the binding signal (log2 normalized intensity) was determined as 4.35.

As to CCAAAGGTCATCTGTCACTCTAGATAAAGA, the binding signal (log2 normalized intensity) worked out at 1.84.

CCTTGCCCCACCCCCCACCCCAGAAGTATG: the binding signal (log2 normalized intensity) was found to be 6.5.

For the sequence CCAATTATTGCGAGTTTAGGAGGGTTCCTG, the binding signal (log2 normalized intensity) is -0.0269.

For the sequence TGCATTGTGGTATTCATTCAACTTTGACTT, the binding signal (log2 normalized intensity) was determined as 2.53.

AATTCATGACTCTCTTATAGGTGTTTATAA: the binding signal (log2 normalized intensity) amounted to 0.379.

As to CTAGGCAGTCCACAGACAAAGGCCCGCTGC, the binding signal (log2 normalized intensity) is -1.27.

Take CCGCGCCCAGCGGTTCCGGGCGGCAGCACA: the binding signal (log2 normalized intensity) was -1.34.

As for GATGGCCCTCTCCAAGGCGGTGTGGAGGTC, the binding signal (log2 normalized intensity) amounted to 1.91.

As for TCCTAGACCTTTGACCTTTATACCTGTACG, the binding signal (log2 normalized intensity) is 6.76.

As for CATCAGATCTGGGTGTGCCATTCTTCCAGT, the binding signal (log2 normalized intensity) worked out at 0.00778.

CCACGGCAACCTTCCTGGAAACCTTCTCTG: the binding signal (log2 normalized intensity) was -1.3.

Turning to GATGAGGCACCAACACTTCCCAATCAGAAA, the binding signal (log2 normalized intensity) is -1.31.

With CCAACAGGTGAAGACATGCTGGTGTGTGAT, the binding signal (log2 normalized intensity) worked out at 0.875.

Consider CCATAGAGTCCACCACTGACCTTAGACCCT, for which the binding signal (log2 normalized intensity) is 6.66.

TGTCCACCAAGGAGGTGCTGACAGGCCCTC: the binding signal (log2 normalized intensity) was -1.42.

Consider GCCTCTTTATCTCCTCCCCTTGAGACTTTA, for which the binding signal (log2 normalized intensity) stood at 2.97.

Take ACAGGGCAAGGAACGGAATGTGTGATAAGG: the binding signal (log2 normalized intensity) is -1.37.

GATCACTGCCTTGGAGGCACTCCCAGGATA: the binding signal (log2 normalized intensity) is -1.44.

Consider TTGACGCCACCTGAAGGCAGGTGTGGGTTG, for which the binding signal (log2 normalized intensity) is 1.34.
